# Source: the supplement of paper PMC12217912
# The list shows a part of the results. The full chains were built here from the parent and the listed change. Values near 0.05 are background.
# B1: TEV protease; numbered along this chain (parent)
# chain: MGESLFKGPRDYNPISSSICHLTNESDGHTTSLYGIGFGPFIITNKHLFRRNNGTLVVQSLHGVFKVKDTTTLQQHLVDGRDMIIIRMPKDFPPFPQKLKFREPQREERICLVTTNFQTKSMSSMVSDTSCTFPSGDGIFWKHWIQTKDGQCGSPLVSTRDGFIVGIHSASNFTNTNNYFTSVPKNFMELLTNQEAQQWVSGWRLNADSVLWGGHKVFMVKPEEPFQPVKEATQL
# Variants of: B1
# Assay: raw area under fraction-flipped curve 0-4 h after induction (AUC4h, not background-subtracted), DNA-recorder readout of cleavage of the substrate (dimensionless); higher = more cleavage of the substrate by the protease variant
# Details: temperature: 34 °C; time window: 0-4 h after rhamnose induction
# Protocol: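 In vivo DNA recorder in E. coli TOP10(DE3) ΔrhaA at 34 °C. Each TEVp single-site mutant (parent TEVp 0) is paired with a single-site variant of the 7-mer TEVs (canonical ENLYFQ|S). The substrate sits between flexible linkers in a Bxb1-sfGFP-TEVs-SsrA fusion, so cleavage stabilises Bxb1 and speeds flipping of a recombination array, read by NGS. The value is the raw area under the fraction-flipped curve over 0-4 h after rhamnose induction (AUC4h), with ≥20 reads per time point. It is not background-subtracted; inactive controls average about 0.047.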
# 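Further: Bxb1 expression induced with 0.2% (w/v) L-rhamnose at OD600 near 0.5, cultures sampled hourly, flipped fraction per protease–substrate barcode pair counted by paired-end Illumina sequencing.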
Variant,area with substrate ENLYFAS,area with substrate ENLYFCS,area with substrate ENLYFES,area with substrate ENLYFIS,area with substrate ENLYFLS,area with substrate ENLYFMS,area with substrate ENLYFWS,area with substrate ENLYFFS,area with substrate ENLYFGS,area with substrate ENLYFKS,area with substrate ENLYFRS,area with substrate ENLYFVS,area with substrate ENLYFPS,area with substrate ENLYFHS,area with substrate ENLYFNS,area with substrate ENLYFSS,area with substrate ENLYFTS,area with substrate ENLYFDS,area with substrate ENLYFYS
S60I,0.055,0.046,0.0676,0.052,0.0394,0.0638,0.0601,–,–,–,–,–,–,–,–,–,–,–,–
S169L,0.0641,0.0583,0.0618,0.0507,–,0.0566,–,0.0599,0.053,0.0563,0.057,0.0571,–,–,–,–,–,–,–
G213I,0.0452,0.0549,0.0588,0.0494,–,0.0554,–,0.0664,–,0.0601,0.0539,0.0555,0.0619,–,–,–,–,–,–
I145S,0.0652,0.0667,–,0.061,0.0632,0.0663,0.0592,–,0.0468,–,0.0467,–,0.0592,0.0652,0.0588,0.0468,0.0203,–,–
K100P,0.0527,0.0645,0.0714,0.06,0.053,0.0746,0.0636,0.0673,–,0.0784,0.0731,0.0579,0.0566,0.0573,–,–,0.0535,0.0599,–
F218Q,0.053,0.0683,0.0579,–,0.0663,0.0612,0.0667,0.0684,–,0.0678,0.0741,0.0788,0.0622,0.0518,0.0693,0.063,0.0699,0.0674,0.0519
N116I,0.0472,–,0.06,0.0363,–,–,–,0.0501,–,–,–,–,–,0.067,0.055,–,–,–,–
H143V,0.0531,0.0544,0.0565,0.0576,–,0.0635,0.051,0.0639,0.0594,0.0505,–,0.0697,0.055,0.0561,0.0642,–,0.0506,0.0577,0.0682
F92S,0.035,0.0522,0.0618,0.0526,0.0587,0.0708,–,0.0394,–,0.0521,–,0.0687,–,0.073,0.0493,–,–,0.0536,–
F92Q,0.0641,–,0.0608,0.0504,–,0.0685,0.0599,0.0442,0.0523,0.0587,0.0595,–,0.0754,0.0556,0.0753,0.0749,0.0285,0.0481,–
D79Y,0.0711,–,–,0.07,–,0.0621,–,–,–,0.0505,0.0559,–,0.075,0.0558,0.0618,0.0618,–,0.0535,–
S158C,0.066,0.0661,0.0653,–,0.0633,–,0.0721,–,–,–,–,0.0484,0.0541,0.0635,–,0.064,–,0.0516,0.0642
G162Y,0.0592,0.049,0.0522,0.0465,0.0507,0.0538,–,0.0744,0.0584,0.0636,0.0604,0.0729,0.0515,–,–,0.0593,–,–,0.0462
S209M,0.0755,–,0.0624,–,–,0.0922,0.0599,0.0697,0.0627,0.0293,0.0567,0.0498,–,–,0.0428,–,0.0636,–,0.0615
S209Q,0.0746,–,–,0.0535,0.0589,0.0751,0.0526,0.0663,0.0575,–,0.0751,0.0629,0.0568,–,0.0581,0.0685,0.0611,–,–
L191R,0.0413,0.0463,0.0603,0.0412,0.0492,0.0646,0.0443,0.0574,–,–,0.0556,0.0648,0.0463,–,0.0408,0.0626,–,0.0466,0.0726
L191W,0.0584,0.0671,0.0846,0.0474,0.0694,0.0642,–,–,0.0681,0.1,–,0.0682,–,–,–,–,0.0712,0.0548,0.0623
D82C,0.0472,0.0166,–,0.0576,–,0.0613,0.0554,0.0821,0.0608,–,–,–,0.0581,–,0.054,–,0.0665,–,0.0524
D82S,0.0613,–,–,0.0541,–,0.0556,0.053,0.0597,0.0571,–,0.0507,–,–,–,–,–,–,–,–
R102S,0.0531,0.0434,–,0.0566,0.0677,0.0487,–,0.0644,–,0.073,0.048,0.0419,0.0577,0.0485,0.044,0.0454,0.0476,0.0499,0.0482
I167L,0.0621,–,0.0541,0.057,–,0.0633,0.0646,0.06,–,0.0328,0.0539,0.0463,0.0613,0.055,–,0.0643,–,–,0.0714
S171N,0.0646,–,0.0611,0.0595,–,–,–,0.0832,0.063,0.0619,0.0623,–,0.0592,–,–,–,–,0.0627,0.0615
H62G,0.0494,0.0531,0.0652,0.0637,0.0896,0.0636,0.0519,0.0621,–,0.0497,–,–,0.0511,–,0.0645,–,0.0628,–,0.0442
H62T,0.0646,0.0661,–,0.0599,0.0296,0.0622,–,0.0676,–,0.0633,0.0638,0.0536,0.071,–,–,0.0625,0.0682,0.0619,–
W203T,0.057,–,0.0555,0.0656,–,0.0591,0.051,–,–,0.0649,0.0613,0.0425,0.056,–,0.0534,0.065,0.0568,–,–
W203H,0.0644,–,0.0525,0.0559,0.0649,0.0552,0.0563,0.0717,0.0654,–,0.0627,0.0546,0.0519,0.0357,0.0496,0.0599,–,0.0477,0.0605
A170D,0.0559,–,0.0537,–,–,0.0492,–,–,–,–,0.0511,–,–,–,0.0628,–,–,–,–
G214I,0.0547,–,–,–,–,0.0554,–,0.102,–,–,–,–,0.0526,–,–,0.006,–,–,–
Q59E,0.0677,0.0759,0.0691,0.0554,–,0.059,0.0552,0.078,0.0453,0.0592,–,0.0311,0.0892,–,0.0456,0.0507,0.0581,0.0552,–
